From the supplement of paper PMC4604168 (melanoma cell lines) come the findings set out here.

Common to all, as to test: cell count relative to DMSO control; melanoma cells; higher = more viable cells
Details in all cases: library dose: low library concentration; 72 h

Experiment [1] concerns WM115.
Experiment [2] deals with WM1716.
Experiment [3] concerns WM1745.
Experiment [4] deals with WM3526.
In experiment [5] the test system is WM3619.
Experiment [6] concerns WM451Lu.

The list shows a part of the results. Most values come without repeats; read them as rough.
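Further: cell number obtained by counting DAPI-stained nuclei in high-throughput microscope images with image analysis software, screen run in 1,536-well plates.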

In the case of `N#CC[C@H](C1CCCC1)n1cc(-c2ncnc3[nH]ccc23)cn1` [ruxolitinib] + COc1cc(Nc2ncc(F)c(Nc3ccc4c(n3)NC(=O)C(C)(C)O4)n2)cc(OC)c1OC [Tamatinib] (first compound 1 µM, partner dose 0.4 µM), the cell count in experiment [1] is 88.7%; in experiment [2] it was 81.7%; in experiment [3], 63.6%; in experiment [4], 93.9%; in experiment [5], 87.2%; in experiment [6] it was 89.3%.
On to `N#CC[C@H](C1CCCC1)n1cc(-c2ncnc3[nH]ccc23)cn1` [ruxolitinib] + NC(=O)Nc1cc(-c2cccc(F)c2)sc1C(=O)N[C@H]1CCCNC1 [AZD7762] (first compound 1 µM, partner dose 0.02 µM), for which the cell count in experiment [1] came out at 113%; in experiment [2], 85.8%; in experiment [3] it was 102%; in experiment [4], 113%; in experiment [5], 60.3%; in experiment [6], 75.6%.
For the compound `N#CC[C@H](C1CCCC1)n1cc(-c2ncnc3[nH]ccc23)cn1` [ruxolitinib] + c1cc(-c2cnn3cc(-c4ccc(OCCN5CCCCC5)cc4)cnc23)ccn1 [Dorsomorphin] (first compound 1 µM, partner dose 0.4 µM), the cell count stood at 118% in experiment [1]; 89% in experiment [2]; 86.7% in experiment [3]; 100% in experiment [4]; 112% in experiment [5]; 88.4% in experiment [6].
For `Cc1cc(Nc2cc(N3CCN(C)CC3)nc(Sc3ccc(NC(=O)C4CC4)cc3)n2)n[nH]1` [Tozasertib] + CCN(CC)CCCCNc1ncc2cc(-c3cc(OC)cc(OC)c3)c(NC(=O)NC(C)(C)C)nc2n1 [PD173074] (first compound 0.006 µM, partner dose 0.1 µM), the cell count in experiment [1] turned out to be 91.9%; in experiment [2], 93.7%; in experiment [3], 71.9%; in experiment [4], 78.2%; in experiment [5], 82.8%; in experiment [6] it was 95.5%.
As to `CC[C@]1(O)C[C@H]2CN(CCc3c([nH]c4ccccc34)[C@@](C(=O)OC)(c3cc4c(cc3OC)N(C=O)[C@H]3[C@@](O)(C(=O)OC)[C@H](OC(C)=O)[C@]5(CC)C=CCN6CC[C@]43[C@@H]65)C2)C1` [vincristine] + C[C@]1(O)C[C@@H](c2nc(-c3ccc4ccc(-c5ccccc5)nc4c3)c3c(N)nccn32)C1 [OSI906] (first compound 0.0001 µM, partner dose 0.4 µM), the cell count in experiment [1] came out at 90.8%; in experiment [2], 66.2%; in experiment [3] it was 76%; in experiment [4], 93.6%; in experiment [5], 97.6%; in experiment [6], 89.2%.
For the compound `Cc1cc(Nc2cc(N3CCN(C)CC3)nc(Sc3ccc(NC(=O)C4CC4)cc3)n2)n[nH]1` [Tozasertib] + O=C(Nc1ccccc1)c1cc([N+](=O)[O-])ccc1Cl [GW9662] (first compound 0.006 µM, partner dose 2 µM), the cell count in experiment [1] worked out at 93.8%; in experiment [2] it was 103%; in experiment [3] it was 89.5%; in experiment [4], 98.8%; in experiment [5], 110%; in experiment [6] it was 106%.
Regarding `N#CC[C@H](C1CCCC1)n1cc(-c2ncnc3[nH]ccc23)cn1` [ruxolitinib] + C=C(c1ccc(C(=O)O)cc1)c1cc2c(cc1C)C(C)(C)CCC2(C)C [Bexarotene] (first compound 1 µM, partner dose 2 µM), the cell count was determined as 117% in experiment [1]; 96.3% in experiment [2]; 99.7% in experiment [3]; 99.3% in experiment [4]; 91.4% in experiment [5]; 67.5% in experiment [6].
`Cc1cc(Nc2cc(N3CCN(C)CC3)nc(Sc3ccc(NC(=O)C4CC4)cc3)n2)n[nH]1` [Tozasertib] + CCCCCCCCc1ccc(CCC(N)(CO)CO)cc1 [fingolimod] (first compound 0.006 µM, partner dose 2 µM): the cell count amounted to 98.6% in experiment [1]; 86.5% in experiment [2]; 90.6% in experiment [3]; 90.6% in experiment [4]; 86.9% in experiment [5]; 92.5% in experiment [6].
Take `Cc1cc(Nc2cc(N3CCN(C)CC3)nc(Sc3ccc(NC(=O)C4CC4)cc3)n2)n[nH]1` [Tozasertib] + CCc1ccc(CCOc2ccc(CC3SC(=O)NC3=O)cc2)nc1 [pioglitazone] (first compound 0.006 µM, partner dose 2 µM): the cell count in experiment [1] is 97.6%; in experiment [2], 90.6%; in experiment [3], 79.1%; in experiment [4], 101%; in experiment [5], 95.4%; in experiment [6], 91.7%.
For the compound `CC[C@]1(O)C[C@H]2CN(CCc3c([nH]c4ccccc34)[C@@](C(=O)OC)(c3cc4c(cc3OC)N(C=O)[C@H]3[C@@](O)(C(=O)OC)[C@H](OC(C)=O)[C@]5(CC)C=CCN6CC[C@]43[C@@H]65)C2)C1` [vincristine] + COC(=O)c1sccc1S(=O)(=O)Nc1ccc(Nc2ccccc2)cc1OC [GSK0660] (first compound 0.0001 µM, partner dose 1 µM), the cell count amounted to 44.5% in experiment [1]; 42.5% in experiment [2]; 82.1% in experiment [3]; 58.5% in experiment [4]; 58.2% in experiment [5]; 58.7% in experiment [6].
On to `CC[C@]1(O)C[C@H]2CN(CCc3c([nH]c4ccccc34)[C@@](C(=O)OC)(c3cc4c(cc3OC)N(C=O)[C@H]3[C@@](O)(C(=O)OC)[C@H](OC(C)=O)[C@]5(CC)C=CCN6CC[C@]43[C@@H]65)C2)C1` [vincristine] + C=CCn1c(=O)c2cnc(Nc3ccc(N4CCN(C)CC4)cc3)nc2n1-c1cccc(C(C)(C)O)n1 [MK1775] (first compound 0.0001 µM, partner dose 0.02 µM), for which the cell count in experiment [1] came out at 40%; in experiment [2] it was 40.1%; in experiment [3], 76.1%; in experiment [4], 72.6%; in experiment [5], 38.4%; in experiment [6], 56.2%.
